Laboratory results published in the supplement of paper PMC5895741.

B1: MS2 coat protein; the commonest letter at each place (parent)
chain: MASNFTQFVLVDNGGTGDVTVAPSNFANGVAEWISSNSRSQAYKVTCSVRQSSAQNRKYTIKVEVPKVATQTVGGVELPVAAWRSYLNMELTIPIFATNSDCELIVKAMQGLLKDGNPIPSAIAANSGIY

Variants of: B1
Assay: apparent fitness score (VLP assembly selection enrichment vs plasmid library) (log10 ratio); higher = better expression / assembly into well-formed VLPs
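Note: counts from Illumina MiSeq reads, cDNA of packaged RNA versus plasmid DNA taken before selection, each replicate independent from library construction onward, expression induced with 0.1% arabinose.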

Variant	apparent fitness score (log10)
I123L	-1.28
E64H	-1.27
E64P	-0.744
E64T	0.627
S3F	-0.277
S3H	0.428
K58Q	-0.589
K58L	-0.219
L113G	-1.09
L113D	< -4
D12W	< -4
D12N	-0.00827
I61Q	< -4
I61G	-1.35
I61S	-0.943
I61K	-1.81
I61A	-1.17
I61P	-0.859
I61E	-1.11
A122N	-1.47
A122C	0.577
A122L	-1.35
Q41Y	< -4
G74Y	0.211

Variant	apparent fitness score (log10)
A31M	< -4
A31V	-0.0848
A31T	0.22
A97Q	-0.72
A97V	-0.335
A69L	< -4
A69D	-0.558
A69V	-1.54
V63C	0.185
P66M	< -4
P66T	< -4
E103D	0.271
E103V	0.471
E103Q	0.535
M89Y	-0.683
M89C	-0.673
V68L	0.593
V68D	-0.087
V68I	0.299
N126W	-1.03
N126S	-1.37
N126F	-1.38
N126Q	< -4
V11R	< -4

Variant	apparent fitness score (log10)
V11I	0.421
V11P	-1.26
V11E	< -4
R50A	< -4
R50T	< -4
R50F	-0.435
C47R	-0.516
C47H	< -4
C47A	-1.15
V49P	< -4
V49C	0.463
N99F	-0.71
N99V	-0.522
N25P	-1.73
N25K	-1.39
N25V	< -4
N25Q	< -4
N25L	-1.31
N25G	0.0795
S48R	0.636
S48A	0.29
S48V	0.08
S48T	0.343
R39W	-0.721

Variant	apparent fitness score (log10)
R39N	< -4
S127G	0.604
M109R	-1.09
M109I	0.795
L10Y	-0.309
S38G	-0.175
S38W	-0.331
S38A	0.101
S38P	0.182
V76Y	-1.41
V76G	-0.756
N28R	< -4
N28C	0.382
S35C	-0.845
S35Q	< -4
S35M	< -4
D115P	0.76
D115F	-0.819
D115V	-0.909
D115H	0.976
D115I	< -4
D115K	0.718
D18G	< -4
D18K	-0.403

Variant	apparent fitness score (log10)
D18I	-1.08
V73A	0.461
I95E	-1.63
V106Y	< -4
V106F	-1.98
V106N	< -4
G14S	-1.08
G14V	-0.786
G14M	-0.565
A42C	1.04
N4E	-1.14
N4R	-0.922
N4P	-1.72
N4A	-1.63
P94L	-1.06
P94F	-1.05
P94H	< -4
K44E	< -4
K44T	-0.378
E90G	0.866
E90D	0.469
E90S	0.896
E90H	0.587
A108Y	-0.173

Variant	apparent fitness score (log10)
Y59Q	-1.07
Y59L	-1.24
G116R	-1.5
G116F	-1.37
G116L	< -4
I93C	-1.04
I93G	-1.2
I93Q	< -4
S85V	-0.689
S85A	0.6
S53P	0.456
N117D	0.0654
N117H	1.03
N117Q	-0.00255
E32N	< -4
E32L	-1.45
E32G	-0.648
F96Q	< -4
F96S	< -4
F96K	-1.47
F96C	-0.966
F96W	0.611
P23R	-1.33
S100L	0.371

Variant	apparent fitness score (log10)
S100Y	-0.0446
G17A	-0.287
G17R	-0.217
T98R	-1.16
T98A	0.46
A22M	-0.582
I129L	0.863
I129M	-0.361
F8I	< -4
F8Q	-0.921
F8L	-1.07
D101A	-0.869
D101F	-0.752
L112C	0.639
L112P	-0.824
L112D	-1.37
L112G	-0.862
Q55M	-0.35
Q55H	0.226
Q55F	-0.101
Q55A	-0.627
Q55D	-0.962
Q55W	-0.0213
P118Q	0.151

Variant	apparent fitness score (log10)
V45A	< -4
V45G	< -4
V45E	< -4
V45R	< -4
V45W	< -4
P79I	< -4
P79Y	-0.382
P79S	-0.0825
N88Y	0.317
A124T	-0.725
A124M	-0.402
Q51K	1.17
Q51W	< -4
Q51D	0.241
Q51H	0.276
E77R	-0.351
E77K	-0.19
E77S	0.406
E77I	0.477
E77M	0.442
E77A	0.482
V9N	0.967
V9E	< -4
V9L	0.441

Variant	apparent fitness score (log10)
N13E	< -4
N13L	0.0725
V21A	< -4
V21M	-1.44
V21C	-1.39
V21P	-1.16
T60L	0.632
T60P	-1.01
L78T	< -4
L78R	-0.687
L78H	< -4
L78N	-0.123
G75M	-0.756
T92F	0.475
T92E	-1.12
N37G	0.57
K107W	-0.983
K107D	< -4
I119N	0.373
I119K	-0.333
I119Y	< -4
W33Q	< -4
W33T	< -4
W33C	-0.0676

Variant	apparent fitness score (log10)
T72A	0.511
T72H	0.397
T72G	-0.25
T72W	0.00727
T72K	0.667
T72C	0.608
T72P	-0.689
T72V	0.835
Y43A	-0.67
Y43M	-1.02
Y43Q	< -4
V30G	< -4
V30M	< -4
L91N	< -4
L91S	-0.981
L91E	-0.771
L91F	-0.798
W83R	-0.405
W83L	-1.55
K62T	-0.386
K62W	-0.915
G128L	< -4
G128P	< -4
G29N	-0.721

Variant	apparent fitness score (log10)
T16K	-0.123
V19Q	-0.991
V19E	-0.493
V19Y	-0.309
A2G	0.379
A2S	-0.251
F26E	< -4
S36D	0.154
S36A	1.04
S36L	-0.464
S36F	0.659
S36V	-1.34
S36H	0.98
L87G	-0.778
L87T	0.186
L87H	< -4
L87N	< -4
S24E	-1.21
S24G	-0.968
T6V	0.624
T6C	0.143
T6R	-1.33
S40C	< -4
S40A	-0.545

Variant	apparent fitness score (log10)
S40Q	< -4
S40V	-0.584
P120K	-1.41
P120R	< -4
P120D	< -4
F5M	-1.01
F5Q	0.0695
R84Y	< -4
R84P	-0.999
R84D	-1.05
V65M	-0.0223
A82D	< -4
A82T	-0.853
A125K	0.689
A125R	1.08
A125G	-0.201
A125V	0.512
A125L	0.747
A125N	0.59
Y86S	-1.13
Y86N	-0.798
Y86V	-0.502
Y86F	0.59
Q110I	< -4

Variant	apparent fitness score (log10)
Q110W	-1.01
Q110K	< -4
Q110G	-0.745
T70I	0.575
T70Y	-0.786
N56A	0.33
N56E	< -4
N56L	-0.986
N56T	-0.128
R57Q	0.39
R57V	0.13
R57D	-1.53
R57T	-1.18
R57H	< -4
R57S	-0.94
A27V	0.45
A27D	< -4
A27H	< -4
I105F	-1
I105N	-0.0599
Q71Y	0.223
Q71A	0.34
Q71H	-0.786
T46K	< -4

Variant	apparent fitness score (log10)
T46C	< -4
A54P	0.517
S121D	0.667
T20S	0.921
T20Y	0.94
T20D	-0.0217
G15Q	< -4
K67V	-1.15
K67T	-1.17
K67A	-1.46
K67C	< -4
A81I	< -4
A81H	< -4
A81W	-0.568
A81M	-0.994
V80F	< -4
V80W	< -4
V80K	< -4
V80S	-0.397
V80N	-0.413
S52K	-1.59
S52L	-1.3
